The source of these data is paper PMC6919601, “Identification of Plasmodium dipeptidyl aminopeptidase allosteric inhibitors by high throughput screening” (PLoS ONE, 2019).

Where “and” joins values, the source holds several entries; their conditions need not be identical. Identical values can stand only once. About 230 (0.21%) of roughly 110,000 compounds showed an effect of 50% or more. Some of the results follow.
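Also: 30 min substrate incubation versus DMSO and 10 µM JCP410 controls.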

This test deals with DPAP1 (Plasmodium falciparum, UniProt Q8IIJ9). Nature of the test: primary screen, percent inhibition; read by cleavage of a fluorogenic dipeptide substrate; higher = more effect of the substance. Also noted: species or system P. falciparum D10 trophozoite lysates; single well.
DPAP1, sequence (Q8IIJ9 whole entry, looked up): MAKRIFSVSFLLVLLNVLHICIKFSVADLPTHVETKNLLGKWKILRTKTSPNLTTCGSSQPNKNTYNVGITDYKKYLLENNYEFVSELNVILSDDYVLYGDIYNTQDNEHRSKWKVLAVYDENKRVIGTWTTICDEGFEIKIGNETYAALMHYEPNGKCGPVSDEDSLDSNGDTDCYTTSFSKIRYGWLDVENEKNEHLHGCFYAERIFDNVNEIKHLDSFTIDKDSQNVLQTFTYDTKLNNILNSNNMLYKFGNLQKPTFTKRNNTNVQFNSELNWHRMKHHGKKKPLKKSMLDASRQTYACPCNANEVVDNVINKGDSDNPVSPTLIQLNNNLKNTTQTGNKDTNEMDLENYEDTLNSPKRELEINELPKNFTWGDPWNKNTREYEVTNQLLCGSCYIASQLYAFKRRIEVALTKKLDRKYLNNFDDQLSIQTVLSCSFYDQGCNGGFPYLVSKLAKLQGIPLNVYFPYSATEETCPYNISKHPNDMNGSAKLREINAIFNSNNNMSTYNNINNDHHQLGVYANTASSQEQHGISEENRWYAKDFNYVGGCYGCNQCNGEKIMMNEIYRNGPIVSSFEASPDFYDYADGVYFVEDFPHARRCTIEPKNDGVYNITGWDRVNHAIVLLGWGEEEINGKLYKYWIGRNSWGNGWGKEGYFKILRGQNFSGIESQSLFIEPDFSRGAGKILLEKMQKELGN
Regarding `Cc1nc2c(c(C)nn2C)c(C)c1CCC(=O)NCCCN1CCC(Cc2ccccc2)CC1`, the “% Inhibition @ 10 uM” value was -6.09%.

With `O=C(Nc1cccnc1Cl)c1noc2c1COc1ccccc1-2`, the “% Inhibition @ 10 uM” value is reported as 3.3%. Take `COc1ccc(-c2nc(SCC(=O)O)c3c(=O)n(C)c(=O)n(C)c3n2)cc1`: the “% Inhibition @ 10 uM” value turned out to be 3.96%. In the case of `C=CCOc1ccc(C(=O)C2=C(O)C(=O)N(CCCN(C)C)C2c2ccc(F)cc2)c(C)c1` (stereo not drawn), the “% Inhibition @ 10 uM” value was -3.75%. For `Nc1ccc(/C=C/c2ccccc2)c(S(=O)(=O)Oc2ccccc2)c1`, the “% Inhibition @ 10 uM” value was 0.937%. The result for `CC1CCN(C(=O)C2CCN(S(=O)(=O)c3c[nH]cn3)CC2)CC1` reads 1.23%. The same measure for `O=C(O)c1ccccc1C(=O)Nc1ccc(-c2cn3ccsc3n2)cc1`: 4.11%; for `CCOC(=O)N1CCC(NC(=O)C2c3ccccc3C(=O)N(C)C2c2cccs2)CC1` (stereo not drawn): 3%; for `c1ccn2cc(-c3ccc4c(c3)OCO4)cc2c1`: -2.88%.

For `Cc1nn(Cc2ccc(C(=O)Nc3ccc(Cn4cccn4)cc3)o2)c(C)c1Cl`, the “% Inhibition @ 10 uM” value was -0.988%. Regarding `CCc1ccc(C2C(C#N)=C(N)OC3=C2C(=O)CC(C)(C)C3)cc1` (stereo not drawn), the “% Inhibition @ 10 uM” value is on record as -0.725%. Consider `Cc1cc(C(=O)CN2CCOCC2)c(C)n1-c1ccc(F)cc1`, for which the “% Inhibition @ 10 uM” value worked out at 4.77%. Take `CN(Cc1ccco1)C(=O)Cn1nc(-c2ccc(Cl)cc2)ccc1=O`: the “% Inhibition @ 10 uM” value is -5.43%. As to `CCn1c(C(=O)O)c(CNCc2ccc(C)o2)c2ccc(OC)cc21`, the “% Inhibition @ 10 uM” value was found to be 3.12%. In the case of `CCCNC(=O)C1CCN(C(=O)c2cc3sccc3n2C)CC1`, the “% Inhibition @ 10 uM” value stood at 1.8%. For the compound `CC(C)c1ccc(N2C(=O)c3cccnc3C2=O)cc1`, the “% Inhibition @ 10 uM” value is recorded as -5.82%. The result for `c1ccc(-c2ncn3c2CCCCC3)cc1` reads -1.64%; that for `Cc1ccc(Cn2ncc3c(NCCN4CCOCC4)ncnc32)cc1`, -3.72%. In the case of `CCCCNC(=O)CCCN1C(=O)CSc2c1c(C)nn2-c1ccccc1`, the “% Inhibition @ 10 uM” value was -0.0309%. On to `COc1ccc(NC(=O)C(=O)NC2CCCC2)c(OC)c1`, for which the “% Inhibition @ 10 uM” value was determined as 2.41%. The same measure for `Cc1ccccc1C(=O)Nc1cccc(-c2nc3cc(Cl)ccc3o2)c1`: -1.48%; for `CC1=NN(c2nc(-c3ccccc3)cs2)C(=O)C1C` (stereo not drawn): 4.67% and 2.64%.

In the case of `CCOc1ccc(Cn2cc(F)c(=O)[nH]c2=O)cc1`, the “% Inhibition @ 10 uM” value is recorded as 5.52%. Regarding `COc1ccc(CCNc2nc3ccccc3c3nnc(C)n23)cc1OC`, the “% Inhibition @ 10 uM” value turned out to be 4.47%.

For the compound `CC1CN(C)C(C)c2c1oc1ccc(N)cc21` (stereo not drawn), the “% Inhibition @ 10 uM” value is -0.833%. Turning to `O=C(COc1ccccc1/C=C1/SC(Nc2ccccc2)=NC1=O)Nc1ccccc1`, the “% Inhibition @ 10 uM” value is recorded as -1.65%. For the compound `COC(=O)c1sccc1NC(=O)Cn1ncc2c1-c1ccccc1OC2`, the “% Inhibition @ 10 uM” value is recorded as -9.98%.

As for `COc1ccc(C(=O)NC2C3CC4CC(C3)CC2C4)cc1Br` (stereo not drawn), the “% Inhibition @ 10 uM” value is given as -7.28%.

`CCCc1nc(Nc2nc3ccccc3s2)ncc1C(=O)OCC`: the “% Inhibition @ 10 uM” value was 3.36%.

With `Cc1cc(O)oc2nnc(C)c1-2`, the “% Inhibition @ 10 uM” value is on record as -6.62%. Consider `Cc1cc(=O)oc2c1c(C)nn2-c1ccccc1`, for which the “% Inhibition @ 10 uM” value stood at 3.44%. As to `Cn1c(SCC(=O)Nc2ccccc2)nc2sc3c(c2c1=O)CCCC3`, the “% Inhibition @ 10 uM” value is reported as 2.46%.

Take `Cn1nc(C(=O)NCCCN2CCOCC2)c2c1-c1ccccc1S(=O)(=O)C2`: the “% Inhibition @ 10 uM” value was found to be 0.372%. Regarding `Cc1ccnc(NC(=O)c2cc3ccc4cccnc4c3[nH]2)c1`, the “% Inhibition @ 10 uM” value is on record as 1.41%. Consider `CCN(CC)CCNc1ncnc2c1cnn2C`, for which the “% Inhibition @ 10 uM” value is 4.28%. For the compound `c1ccc2c(c1)COC(CN1CCCCC1)OC2`, the “% Inhibition @ 10 uM” value is -2.8%. For `O=C(CSc1nnc(-c2cccnc2)n1Cc1ccccc1)c1ccc(Br)cc1`, the “% Inhibition @ 10 uM” value is on record as -3.75%.

Take `Cc1ccc(CSc2nc3nncc-3c(O)n2-c2ccc(C)cc2)cc1`: the “% Inhibition @ 10 uM” value stood at 2.9%. For `Cc1ccc(C2C(C#N)=C(N)OC3=C2C(=O)CC(C)(C)C3)s1` (stereo not drawn), the “% Inhibition @ 10 uM” value came out at 4.26%. In the case of `COc1cccc(C2C3=C(O)CCCC3=NC(C)=C2C(=O)Nc2cccc(C)n2)c1OC` (stereo not drawn), the “% Inhibition @ 10 uM” value is 1.4%. Take `Cc1ccc(-c2cc(C(=O)Nc3ccncc3)c3ccccc3n2)cc1`: the “% Inhibition @ 10 uM” value is -0.95%.

Consider `O=S(=O)(c1ccc(F)cc1)c1cnc(S)nc1O`, for which the “% Inhibition @ 10 uM” value came to 1.6%. The same measure for `CCOC(=O)/C(C#N)=C1/C=CN(C)C=N1`: 3.6%; for `Cc1c(-c2cccs2)nc2ccccc2c1C(=O)O`: 0.331%; for `CCN(CC)C(=O)C1CCCN(C2CC(=O)N(c3ccc(Br)cc3)C2=O)C1` (stereo not drawn): 4.07%. Regarding `COc1cc2oc(=O)c(CC(=O)N3CCCC3)c(C)c2cc1OC`, the “% Inhibition @ 10 uM” value came to 2.54%. For the compound `COc1ccc(/C=C2/SC(c3ccc(C)cc3)=NC2=O)cc1OC`, the “% Inhibition @ 10 uM” value is -1.28%. On to `COC(=O)c1cc(S(=O)(=O)N(CC(C)C)CC(C)C)c[nH]1`, for which the “% Inhibition @ 10 uM” value was -6.25%. Regarding `COc1ccc(/C(O)=C/C=N/c2ccc(F)cc2)cc1OC`, the “% Inhibition @ 10 uM” value is given as -6.08%. On to `NS(=O)(=O)c1ccc(NC(=O)CS(=O)(=O)Cc2ccccc2)cc1`, for which the “% Inhibition @ 10 uM” value is recorded as 5.48%. In the case of `O=P(O)(CN1CCCCCC1)C1Cc2ccccc2C1`, the “% Inhibition @ 10 uM” value was determined as 0.0539%. In the case of `COc1ccc(N2CCN(Cc3ccc(Br)o3)CC2)cc1`, the “% Inhibition @ 10 uM” value was found to be 3.16%.

Consider `CCCCOc1ccc(C2=N/C(=C\c3ccc4c(c3)OCO4)C(=O)O2)cc1`, for which the “% Inhibition @ 10 uM” value worked out at 5.94%. Turning to `Cc1c(C(=O)N2CCC3(CC2)OCCO3)sc2ncnc(N3CCN(c4ccccn4)CC3)c12`, the “% Inhibition @ 10 uM” value was found to be 2.38%. On to `Cc1nn(-c2ccccc2)c2c1N(CC(=O)N1CCN(C(=O)c3ccco3)CC1)C(=O)CS2`, for which the “% Inhibition @ 10 uM” value is 1.11%.

`Oc1cccc(-c2csc3nc4ccccc4n23)c1`: the “% Inhibition @ 10 uM” value is listed as 6.32%. The result for `CCS(=O)(=O)C1=NN2C(=N)/C(=C\c3ccc(OCc4ccccc4F)cc3)C(=O)N=C2S1` reads -5.22%; that for `O=C(Cc1csc2ccccc12)NCc1ccccc1`, 3.04%. Regarding `Cc1[nH]c2ccccc2c1CCNCC(C)(C)C`, the “% Inhibition @ 10 uM” value is listed as -6.36%. As for `CC(NC(=O)C(=O)N1CCCCC1)C(c1cccs1)N1CCOCC1` (stereo not drawn), the “% Inhibition @ 10 uM” value worked out at 2.34%. Regarding `O=C(Nc1ccccc1Br)c1c(O)nc2ccccc2c1O`, the “% Inhibition @ 10 uM” value came out at 4.15%. Turning to `O=C1CC(Sc2ccccn2)C(=O)N1c1ccc(Br)cc1` (stereo not drawn), the “% Inhibition @ 10 uM” value was 2.38%.

As for `CCc1nc(C)ccc1OCC(=O)O`, the “% Inhibition @ 10 uM” value was found to be 4.54%. Turning to `CCSc1nnc(NC(=O)c2cccn(OCc3cccc(Cl)c3)c2=O)s1`, the “% Inhibition @ 10 uM” value turned out to be 0.0579%. Turning to `Cc1cc(C(=O)N2CCN(c3ccccn3)CC2)c2c(C)nn(-c3ccccc3)c2n1`, the “% Inhibition @ 10 uM” value is listed as -0.0795%. The same measure for `O=C(CSc1nc(NCc2ccc3c(c2)OCO3)c2ccccc2n1)c1ccccc1`: -5.31%.

As for `Cc1ccc(N2C(=S)NC(=O)CC2c2ccccc2)cc1` (stereo not drawn), the “% Inhibition @ 10 uM” value is on record as 5.73%. The same measure for `COc1ccc(COC(=O)C2=C(C)NC(=O)CC2c2ccccc2C)cc1` (stereo not drawn): 3.11%; for `Cc1nnc(N2CCC(C(=O)NCc3ccco3)CC2)c2nn(-c3ccc(Cl)cc3)c(C)c12`: 4.72%. On to `CCCN1CCC(NCc2ccc(F)cc2)CC1`, for which the “% Inhibition @ 10 uM” value worked out at 4.28%. For the compound `CCOC(=O)c1nc(NCc2ccccc2)c2ccccc2n1`, the “% Inhibition @ 10 uM” value is on record as -5.51%.

For `CC(C)NC(=O)c1ccccc1NC(=O)CN(c1cccc(F)c1)S(C)(=O)=O`, the “% Inhibition @ 10 uM” value was 1.03%. `OCCOCCN1CCN(C2CC3CCC2C3)CC1` (stereo not drawn): the “% Inhibition @ 10 uM” value is -5.11%. Turning to `COc1cc(C(=O)Nc2sc(C)c(C)c2C(N)=O)cc(OC)c1OC`, the “% Inhibition @ 10 uM” value was 3.8%. Consider `CCOc1ccc(/C=C/c2nc(C#N)c(NCCOC)o2)cc1`, for which the “% Inhibition @ 10 uM” value came out at 0.895%.

For `Cc1c(CN2CCN(C/C=C/c3ccccc3)CC2)c(=O)n(-c2ccccc2)n1C`, the “% Inhibition @ 10 uM” value is on record as -2.03%. `CCOc1ccccc1/C=C1\N=C(c2ccc(Cl)c(Cl)c2)OC1=O`: the “% Inhibition @ 10 uM” value is recorded as -2.6%. With `O=C(NCc1ccc(F)cc1)C1CCC(=O)N1CCc1ccccc1` (stereo not drawn), the “% Inhibition @ 10 uM” value is -1.79%.

Turning to `CN1C(=O)C(=Cc2cc(Br)ccc2OCc2ccc(Cl)cc2Cl)C(=O)N(C)C1=O`, the “% Inhibition @ 10 uM” value came out at 23.7%.

For `O=C1c2ccccc2C(=O)N1c1ccc(S(=O)(=O)Nc2ccc(F)cc2)cc1`, the “% Inhibition @ 10 uM” value is -1.04%. `O=C(O)C1Cc2c([nH]c3ccccc23)C(c2cc(Cl)cc(Cl)c2O)N1` (stereo not drawn): the “% Inhibition @ 10 uM” value was -3.62%. The result for `CC(=O)c1cc(-c2ccccc2)n(CC(=O)NCc2ccc(C)cc2)c1C` reads 3.07%; that for `CO/C(O)=C1/C(C)=NC2=C(C(=O)CC(c3ccc4c(c3)OCO4)C2)C1c1ccc(Br)cc1` (stereo not drawn), 2.7%. Consider `COc1ccc(CCNCc2c(C(=O)O)n(Cc3ccc(F)cc3)c3cc(C)ccc23)cc1OC`, for which the “% Inhibition @ 10 uM” value is given as 0.16%. The result for `Cc1ccc(C2CC(C(F)(F)F)n3ncc(C(=O)NCCN4CCOCC4)c3N2)cc1` (stereo not drawn) reads 7.93%. The same measure for `O=C(NCc1ccc2c(c1)OCO2)c1ccc(CS(=O)c2ccccc2)o1` (stereo not drawn): 0.458%; for `Cc1c2ccc3ccccc3c2s[n+]1CCCS(=O)(=O)O`: -4.78%.

Take `Cc1nnc2ccc(N3CCN(Cc4ccc5c(c4)OCO5)CC3)nn12`: the “% Inhibition @ 10 uM” value is on record as 2.72%. Take `O=C(Cn1ncc2c(=O)oc3ccccc3c21)NCCOC1C2CC3CC(C2)CC1C3` (stereo not drawn): the “% Inhibition @ 10 uM” value was 7.39%. In the case of `CCOc1ccccc1C(=O)N1CCN(c2cccc(Cl)c2)CC1`, the “% Inhibition @ 10 uM” value is recorded as 5%. The result for `Cc1cccc(C(=O)Nc2ccccc2C(N)=O)c1` reads -5.94%. Turning to `O=[N+]([O-])c1ccc(Cl)cc1CN1CCC(Cc2ccccc2)CC1`, the “% Inhibition @ 10 uM” value is listed as 3.01%. The same measure for `CC(C)N(CC#CCC1(O)c2ccccc2-c2ccccc21)C(C)C`: 5.93%; for `CC1CN(C)c2ccccc2-[n+]2ccsc21` (stereo not drawn): -6.81%. On to `OC(Cn1cccc1)c1ccccc1` (stereo not drawn), for which the “% Inhibition @ 10 uM” value is 2.99%. The same measure for `CCSc1nc2sc3c(c2c(=O)n1-c1ccccc1)CCN(C)C3`: -3.44%; for `N#CCNC(=O)[C@H](CSCc1ccccc1)NC(=O)c1ccc(F)cc1`: 1.35%. The same measure for `CCN1CCCC(OC(=O)NC2CCCCC2)C1` (stereo not drawn): 3.72%; for `Cc1sc2nc(-c3ccc(N(C)C)c(Br)c3)nc(O)c2c1C`: 11.8%. The same measure for `Cn1cc(/C=C2/SC(=O)N(CC(=O)Nc3ccccc3)C2=O)c2ccccc21`: -5.82%.

On to `Cc1ccc2nc(NCc3ccccc3)c(/C=N/Cc3ccccc3)c(=O)n2c1`, for which the “% Inhibition @ 10 uM” value was -0.178%. As for `Cc1ccc(C2C(C(=O)c3cccs3)=C(O)C(=O)N2CCN2CCOCC2)cc1` (stereo not drawn), the “% Inhibition @ 10 uM” value was 0.367%.
